Measured values from PubChem BioAssay AID686979 (National Center for Advancing Translational Sciences (NCATS), 2013).
Several values for one entry are separate records, joined by “and”; a condition that tells them apart may be missing. Equal values may be shown once. Hit rate of the full screen: of about 420,000 compounds, about 50,000 (12%) were called active. Inconclusive results, whose numbers are uncertain, are shown with a selection of clear calls. The call rests on the fitted dose curve; in most records, active means well fitted inhibition curve with a large enough effect; inconclusive means small, poorly fitted or top-dose-only effect; inactive means flat fitted curve, though single readings scatter. Potencies beside an inconclusive call are fits to weak or partial responses and may not hold up.

Experiment: qHTS for Inhibitors of human tyrosyl-DNA phosphodiesterase 1 (TDP1): qHTS in cells in presence of CPT; further: nearly all actives have a fitted effect of over 55% in size
Conditions: chicken DT40 Tdp1-/-;hTDP1 cells + 20 nM CPT, ATP luminescence, 48 h; activity change, negative = growth inhibition: at 46.2 µM (top of the series)
How it was run: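 Cell growth measured by CellTiter-Glo luminescence after a minimum 48 h, 37 C compound exposure with 20 nM CPT in Tdp1-knockout DT40 cells stably expressing hTDP1, seeded 400/well; qHTS titration format.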
On the % scale 0 is the no-effect control and ±100 the full control effect; potency means the concentration at half of the fitted maximal effect; tags describe the fitted curve by direction and shape.

Structure (SMILES)	Potency	activity change, negative = growth inhibition
COc1ccc(C2=NOC(Cn3nc(C(=O)NCc4ccccc4OC)cc3-c3ccccc3)C2)cc1 (configuration not stated)	active: 23.1 µM	–
CCOC(=O)C(C(=O)Nc1ccc(C)cc1)C1CCCCC1 (configuration not stated)	inconclusive: 25.9 µM [inhibitor, single point]	–
Cc1nc(N/N=C/c2cccc([N+](=O)[O-])c2)cc(N2CCCCC2)n1	inconclusive: 25.9 µM [inhibitor, single point]	–
CC(C)c1ccc(Nc2ncnc3c2c(-c2ccccc2)cn3-c2ccccc2)cc1	active: 3.66 µM	–
COc1ccccc1CNC(=O)Cn1nc(C)c2nn(-c3ccc(Cl)cc3)c(C)c2c1=O	active: 20.6 µM	–
COc1cccc(-c2nnc(NC(=O)c3cccc(F)c3)o2)c1	active: 3.26 µM	–
C/C(Cl)=C/CSc1nc2c(c(=O)[nH]c(=O)n2C)n1C(C)C	inconclusive: 29.1 µM [inhibitor, single point]	–
CC(=O)Nc1ccc(S(=O)(=O)N2CCN(S(=O)(=O)N3CCOCC3)CC2)cc1	inconclusive: 29.1 µM [inhibitor, single point]	–
CCN(CC)S(=O)(=O)c1cccc(NC(=O)/C=C/c2cccc([N+](=O)[O-])c2)c1	inconclusive: 23.1 µM [inhibitor, single point]	–
Cc1cc(C)cc(NC(=O)C2(c3cccs3)CCOCC2)c1	inconclusive: 20.6 µM [inhibitor, single point]	–
CC(=O)Nc1ccc(S(=O)(=O)N2CCN(C(=O)c3ncoc3-c3ccccc3C)CC2)cc1	inconclusive: 18.4 µM [inhibitor, single point]	–
Cc1ccc(NC(=O)c2ccc(F)c(S(=O)(=O)N3CCOCC3)c2)cc1F	inconclusive: 16.4 µM [inhibitor, single point]	–
Clc1cccc(-n2ncc3c(N4CCN(Cc5ccccc5)CC4)ncnc32)c1	active: 23.1 µM	–
CN(C)c1ccc(-c2csc(C(O)c3ccccc3)n2)cc1 (configuration not stated)	inconclusive: 7.31 µM [inhibitor, partial curve]	–
CC1=C(C(=O)OC2CCCC2)C(c2coc3ccc(C)cc3c2=O)C2=C(CCCC2=O)N1 (configuration not stated)	inconclusive: 23.1 µM [inhibitor, single point]	–
O=S(=O)(c1ccc2ccccc2c1)N1CCN(C(=S)Nc2ccc(F)c(Cl)c2)CC1	inconclusive: 29.1 µM [inhibitor, partial curve, poor fit]	–
Cc1cc(C)n(-c2cc(C)c(C)cc2Br)n1	inconclusive: 20.6 µM [inhibitor, partial curve]	–
Cn1cnnc1Sc1ccc(S(C)(=O)=O)cc1[N+](=O)[O-]	–	inactive: 0.347%
COc1ccccc1S(=O)(=O)N(C)C[C@H]1OCc2cnnn2CCCC(=O)N([C@H](C)CO)C[C@@H]1C	–	inactive: -13.3%
Nc1nc(SCc2ccccc2Cl)nc2nc3c(cc12)CCCC3	inconclusive: 29.1 µM [inhibitor, single point]	–
CC(C)COc1ccccc1C1CC(=O)Nc2cc3c(cc21)OCO3 (configuration not stated)	active: 2.59 µM	–
COCCNc1ncnc2c1cnn2Cc1ccccc1Cl	inconclusive: 10.3 µM [inhibitor, partial curve]	–
CCN(CC)S(=O)(=O)c1ccc(N2CCOCC2)c(NC(=O)c2ccccc2F)c1	inconclusive: 16.4 µM [inhibitor, partial curve, poor fit]	–

Structure (SMILES)	Potency	activity change, negative = growth inhibition
Cc1noc(C)c1COC(=O)C1(c2cccc(F)c2)CCCC1	inconclusive: 29.1 µM [inhibitor, single point]	–
O=C(CC1CCCC1)NCCS(=O)(=O)N1CCN(c2ccc(F)cc2)CC1	inconclusive: 18.4 µM [inhibitor, single point]	–
COc1cc(C(=O)OCC(=O)c2cc(C)n(CC3CCCO3)c2C)cc(OC)c1C (configuration not stated)	inconclusive: 20.6 µM [inhibitor, single point]	–
O=S(=O)(NC1c2cccc3cccc(c23)C1Sc1ncccn1)c1ccccc1 (configuration not stated)	inconclusive: 23.1 µM [inhibitor, single point]	–
Cc1c(C(=O)NCc2ccc(Cl)c(Cl)c2)sc(=O)n1Cc1ccc(S(C)(=O)=O)cc1	inconclusive: 23.1 µM [inhibitor, single point]	–
COc1ccc(CC(=O)Nc2sc(Cc3ccccc3)c(C)c2C(N)=O)cc1	–	inconclusive: -33.1% [inhibitor]
Cc1ccc(S(=O)(=O)N2CCN(C(=O)[C@H](Cc3ccccc3)NC(=O)c3ccco3)CC2)cc1C	inconclusive: 29.1 µM [inhibitor, single point]	–
COc1ccc(C(=O)O)cc1S(=O)(=O)N(CCc1ccccc1)Cc1ccccc1	–	inactive: -1.66%
COc1cccc(CNC(=O)Cn2ccc3cc(S(=O)(=O)N4CCC(C)CC4)ccc32)c1	inactive and inconclusive: 29.1 µM [inhibitor, single point]	–
O=C(COC(=O)c1c2c(nc3ccccc13)/C(=C\c1cccs1)CCC2)Nc1ccccc1Cl	inconclusive: 20.6 µM [inhibitor, single point]	–
Cc1ccc(S(=O)(=O)N2[C@H](CC(=O)c3ccccc3)OC[C@@H]2C(C)C)cc1	inconclusive: 29.1 µM [inhibitor, single point]	–
CCN(CC)S(=O)(=O)c1ccc(N2CCOCC2)c(NC(=O)C23CC4CC(CC(Cl)(C4)C2)C3)c1	inconclusive: 29.1 µM [inhibitor, single point]	–
COc1ccc(NC(=O)Cn2ccn(-c3ccccc3)c(=O)c2=O)cc1	–	inactive: -3.36%
CCOc1ccc(OCCC(=O)OCC(=O)NCc2ccccc2)cc1	–	inactive: 3.27%
CCC(C)n1c(SCC(=O)Nc2ccccc2C(F)(F)F)nc2ccsc2c1=O (configuration not stated)	–	inactive: -18.6%
Cc1ccc(-c2nc3cccnc3s2)cc1NC(=O)Cc1ccccc1	inconclusive: 16.4 µM [inhibitor, single point]	–
CCOC(=O)c1ccc(NC(=O)CSc2nc3ncccc3[nH]2)cc1	inconclusive: 23.1 µM [inhibitor, single point]	–
CN(Cc1ccco1)Cc1cc(-c2ccnc3cc(Cl)ccc23)ccc1O	–	inactive: -20.9% [at 9.04 µM]
COc1ccc(CCNc2nc(=S)[nH]c3cc(OC)c(OC)cc23)cc1OC	–	inactive: -28.8%
CCn1nc(C(=O)NNS(=O)(=O)c2ccc(C)cc2)c2ccccc2c1=O	–	inactive: -3.72%
O=C(c1ccc(OC2CCN(Cc3cccc(OCCO)c3)CC2)cc1)N1CCCC1	–	inactive: -2.35%
COc1ccc(NC(=O)CN2C(=O)C(c3ccccc3)=NC23CCCCCC3)cc1OC	inconclusive: 23.1 µM [inhibitor, single point]	–
COC(=O)c1c(NC(=O)c2ccccc2[N+](=O)[O-])sc2c1CC(C)(C)NC2(C)C	inconclusive: 29.1 µM [inhibitor, single point]	–

Structure (SMILES)	Potency	activity change, negative = growth inhibition
CCOC(=O)c1[nH]c2ccc(Cl)cc2c1-c1ccccc1	inconclusive: 16.4 µM [inhibitor, partial curve]	–
N#Cc1c2c(c(=S)n(-c3ccccc3)c1N)CCCC2	–	inactive: -17.4%
Cc1ccc(-n2nc(C)c3c(C(=O)Nc4ccc(Br)c(C)c4)cc(C)nc32)cc1	inconclusive: 29.1 µM [inhibitor, single point]	–
CC(=O)N1CCN(C(=O)c2ccc(NS(=O)(=O)c3cc(C)ccc3C)cc2)CC1	inconclusive: 25.9 µM [inhibitor, single point]	–
Cn1c(=O)oc2cc(S(=O)(=O)NCCC(=O)N3CCc4ccccc43)ccc21	–	inactive: -1.52%
CCOc1ccc(-c2cc(C(=O)N3CCC(C)CC3)c3ccccc3n2)cc1	inconclusive: 20.6 µM [inhibitor, single point]	–
CCOc1cc(CN2CCN(CCOCCO)CC2)ccc1OC	–	inactive: -5.37%
CC(=O)c1ccc(N2CCN(C(=O)c3cc(-c4cccnc4)nc4ccc(Br)cc34)CC2)cc1	inconclusive: 18.4 µM [inhibitor, partial curve, poor fit]	–
CCOc1cc(C(=O)Nc2ccc(S(=O)(=O)NC3=NCCCCC3)cc2)cc(OCC)c1OCC	inconclusive: 23.1 µM [inhibitor, single point]	–
Cc1ccc2oc(=O)c3cc(C(=O)NCCN4CCN(C)CC4)sc3c2c1	active: 23.1 µM	–
CCC1Oc2ccc(C)cc2N(CC(=O)NCCc2ccc(OC)c(OC)c2)C1=O (configuration not stated)	inconclusive: 29.1 µM [inhibitor, single point]	–
CN(C(=O)c1ccccc1-c1ncc[nH]1)C1CCCN(Cc2ccccc2F)C1 (configuration not stated)	–	inactive: -0.883%
COc1ccc2oc(C(=O)OC(C)C(=O)N3CCC(C)CC3)c(C)c2c1 (configuration not stated)	inconclusive: 20.6 µM [inhibitor, single point]	–
NC(=NCCc1c[nH]c2ccccc12)NS(=O)(=O)c1ccc(F)cc1	inconclusive: 29.1 µM [inhibitor, single point]	–
N#Cc1cccc(-c2nccc(-n3ccnc3)n2)c1	inconclusive: 23.1 µM [inhibitor, single point]	–
COCCNc1nc(-c2ccccc2OC)nc2ccccc12	inconclusive: 29.1 µM [inhibitor, single point]	–
CCCOc1ccc(/C(O)=C2/C(=O)C(=O)N(c3ccccn3)C2c2ccc(OC)cc2)cc1C (configuration not stated)	–	inactive: -29.9%
COCC1CCCN(Cc2ccc3c(c2)CN(C(=O)c2ccc(OC)nc2OC)CCO3)C1 (configuration not stated)	–	inactive: 8.37% [at 9.04 µM]
Cc1cnc(NC(=O)CCc2ccccc2)s1	active: 16.4 µM	–
Cc1cc(-n2c(SCC(=O)Nc3ccc(Br)cc3)nc3n[nH]c(C)c3c2=N)ccc1Cl	inconclusive: 18.4 µM [inhibitor, single point]	–
CC(=O)c1cccc(NC(=S)N2CCN(S(=O)(=O)c3ccc(F)cc3)CC2)c1	–	inactive: 23.5%
